Laboratory results taken from the supplement of paper PMC11876631.
± gives the standard deviation of the averaged measurements. Laboratory Escherichia coli strains with one amino-acid change in an essential protein, pooled on minimal glucose agar with carbenicillin or gentamicin at twice the control MIC (plus kanamycin and chloramphenicol for the plasmids), 48 h. Fold change of barcode share against drug-free plates; higher = less susceptible. Active = above 20 in both replicates (the paper's putatively resistant). '<' = one read or none on drug, '>' = one read or none on a drug-free plate. Shares are relative, so most strains fall below 1 when a few take over. Listed are strains with at least 15 reads on both drug-free plates, and hits; most hits rest on fewer reference reads. Replicate rank correlation about 0.5. Edits are read from barcodes.

B1: lspA; numbered along this chain (parent)
chain: MSQSICSTGLRWLWLVVVVLIIDLGSKYLILQNFALGDTVPLFPSLNLHYARNYGAAFSFLADSGGWQRWFFAGIAIGISVILAVMMYRSKATQKLNNIAYALIIGGALGNLFDRLWHGFVVDMIDFYVGDWHFATFNLADTAICVGAALIVLEGFLPSRAKKQ
B2: proS; numbered along this chain (parent)
chain: MRTSQYLLSTLKETPADAEVISHQLMLRAGMIRKLASGLYTWLPTGVRVLKKVENIVREEMNNAGAIEVSMPVVQPADLWQESGRWEQYGPELLRFVDRGERPFVLGPTHEEVITDLIRNELSSYKQLPLNFYQIQTKFRDEVRPRFGVMRSREFLMKDAYSFHTSQESLQETYDAMYAAYSKIFSRMGLDFRAVQADTGSIGGSASHEFQVLAQSGEDDVVFSDTSDYAANIELAEAIAPKEPRAAATQEMTLVDTPNAKTIAELVEQFNLPIEKTVKTLLVKAVEGSSFPQVALLVRGDHELNEVKAEKLPQVASPLTFATEEEIRAVVKAGPGSLGPVNMPIPVVIDRTVAAMSDFAAGANIDGKHYFGINWDRDVATPEVADIRNVVAGDPSPDGQGRLLIKRGIEVGHIFQLGTKYSEALKASVQGEDGRNQILTMGCYGIGVTRVVAAAIEQNYDERGIVWPDAIAPFQVAILPMNMHKSFRVQELAEKLYSELRAQGIEVLLDDRKERPGVMFADMELIGIPHTIVLGDRNLDNDDIEYKYRRNGEKQLIKTGDIVEYLVKQIKG
B3: lgt; numbered along this chain (parent)
chain: MTSSYLHFPEFDPVIFSIGPVALHWYGLMYLVGFIFAMWLATRRANRPGSGWTKNEVENLLYAGFLGVFLGGRIGYVLFYNFPQFMADPLYLFRVWDGGMSFHGGLIGVIVVMIIFARRTKRSFFQVSDFIAPLIPFGLGAGRLGNFINGELWGRVDPNFPFAMLFPGSRTEDILLLQTNPQWQSIFDTYGVLPRHPSQLYELLLEGVVLFIILNLYIRKPRPMGAVSGLFLIGYGAFRIIVEFFRQPDAQFTGAWVQYISMGQILSIPMIVAGVIMMVWAYRRSPQQHVS
B4: fmt; numbered along this chain (parent)
chain: MSESLRIIFAGTPDFAARHLDALLSSGHNVVGVFTQPDRPAGRGKKLMPSPVKVLAEEKGLPVFQPVSLRPQENQQLVAELQADVMVVVAYGLILPKAVLEMPRLGCINVHGSLLPRWRGAAPIQRSLWAGDAETGVTIMQMDVGLDTGDMLYKLSCPITAEDTSGTLYDKLAELGPQGLITTLKQLADGTAKPEVQDETLVTYAEKLSKEEARIDWSLSAAQLERCIRAFNPWPMSWLEIEGQPVKVWKASVIDTATNAAPGTILEANKQGIQVATGDGILNLLSLQPAGKKAMSAQDLLNSRREWFVPGNRLV

Variants of: B1
Experiment: barcode share on antibiotic plates over drug-free plates; higher = less susceptible
Conditions: with Escherichia coli (laboratory strain); antibiotic: gentamicin; 2× MIC (MIC 0.45 µg/mL)
Procedure: (§1)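 A pool of E. coli strains, each edited to carry one amino-acid change in an essential protein, was grown for 48 h on minimal glucose agar with or without antibiotic; strain barcodes were sequenced; mean of two replicates.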

Variant | fold change of barcode share
V17P | < 0.00442
V17W | < 0.00739
F72A | < 0.0227

Variants of: B2
Experiment: as above
Conditions: with Escherichia coli (laboratory strain); antibiotic: carbenicillin; 2× MIC (3.1 µg/mL)
Procedure: as §1

Variant | fold change of barcode share
L266A | 0.22 ± 0.0075
L266D | 0.187 ± 0.11
L266P | 0.3195 ± 0.00057
L266Q | 0.223 ± 0.13
L266W | 0.585 ± 0.3
V278A | 2.13 ± 2.4
V278Q | 0.388 ± 0.2
V283A | 0.283 ± 0.064
I414A | 0.439 ± 0.066
I414D | 0.372 ± 0.1
I414P | 0.188 ± 0.0051
I414Q | 0.161 ± 0.023
I414W | 0.635 ± 0.4
M441A | 0.265 ± 0.12
M441Q | 0.236 ± 0.086
W467A | 0.374 ± 0.23
W467P | 0.472 ± 0.19
W467Q | 0.338 ± 0.019
L479Q | 0.207 ± 0.015
L479W | 0.263 ± 0.015
L492A | 0.853 ± 0.29
L492D | 1.7 ± 1.1
L492P | 0.464 ± 0.24
L492Q | 0.225 ± 0.011
L492W | 0.501 ± 0.18

Same assay, conditions: with Escherichia coli (laboratory strain); antibiotic: gentamicin; 2× MIC (MIC 0.45 µg/mL)

Variant | fold change of barcode share
L266A | < 0.0108
L266D | 0.0112 ± 0.0065
L266P | < 0.00876
L266Q | < 0.0124
L266W | 0.00984 ± 0.0044
V278A | < 0.00801
V283A | 0.00776 ± 0.0052
I414A | < 0.0122
I414D | 0.0156 ± 0.014
I414Q | < 0.00734
I414W | 0.0357 ± 0.032
M441A | 0.488 ± 0.68
M441Q | 0.00848 ± 0.0053
W467A | 0.00744 ± 0.0018
W467P | 0.00693 ± 0.0059
W467Q | < 0.00369
L479Q | 0.154 ± 0.058
L479W | < 0.00707
L492A | 0.0124 ± 0.0098
L492D | 0.0107 ± 0.011
L492P | < 0.00543
L492Q | 0.00459 ± 0.0036
L492W | 0.0103 ± 0.012
L479A | < 0.00415
L479P | 0.00661 ± 0.0034

Variants of: B3
Experiment: as above
Conditions: with Escherichia coli (laboratory strain); antibiotic: carbenicillin; 2× MIC (3.1 µg/mL)
Procedure: as §1

Variant | fold change of barcode share
V127W | 0.533 ± 0.28
V57Q | 0.298 ± 0.15
L214A | 0.156 ± 0.0057
V57W | 1.3 ± 0.4
L31W | 0.888 ± 1
L210D | 0.345 ± 0.035
L31D | 0.475 ± 0.025
F69Q | 0.225 ± 0.059
L31A | 0.264 ± 0.12
V127P | 0.205 ± 0.12
I213D | 0.367 ± 0.23
V127Q | 0.245 ± 0.17
L210Q | 0.191 ± 0.23
V57P | 0.683 ± 0.42
I213W | 0.318 ± 0.19
F69A | 1.06 ± 0.24
V57A | 0.384 ± 0.13
L214D | 0.193 ± 0.075
L214Q | 0.23 ± 0.16
F69D | 0.23 ± 0.071

Same assay, conditions: with Escherichia coli (laboratory strain); antibiotic: gentamicin; 2× MIC (MIC 0.45 µg/mL)

Variant | fold change of barcode share
V127W | < 0.0137
V57Q | 0.0073 ± 0.0054
L214A | < 0.0062
L31W | 0.013 ± 0.0032
F69Q | < 0.0107
L31A | < 0.00475
V127P | 0.0235 ± 0.015
V127Q | < 0.00989
V57P | 0.00436 ± 0.0018
I213W | < 0.0121
F69A | < 0.00533
V57A | 0.00753 ± 0.0042
L214D | < 0.00627
L214Q | < 0.0163
V127A | < 0.0147
F69W | < 0.0165
I213A | < 0.018

Variants of: B4
Experiment: as above
Conditions: with Escherichia coli (laboratory strain); antibiotic: carbenicillin; 2× MIC (3.1 µg/mL)
Procedure: as §1

Variant | fold change of barcode share
I228A | 0.558 ± 0.4
I8W | 0.295 ± 0.054
F34D | 0.455 ± 0.15
F34A | 0.307 ± 0.0044
F9Q | 0.73 ± 0.47
I228P | 0.208 ± 0.0022
M140A | 0.0699 ± 0.039
I8Q | 0.269 ± 0.013
M140P | 0.361 ± 0.11

Same assay, conditions: with Escherichia coli (laboratory strain); antibiotic: gentamicin; 2× MIC (MIC 0.45 µg/mL)

Variant | fold change of barcode share
I228A | < 0.00788
I8W | < 0.00381
F34D | < 0.0143
F34A | < 0.0044
I228P | < 0.00855
I8Q | < 0.00463
M140P | < 0.0147
